Test results reported in PubChem BioAssay AID760 (NMMLSC, 2007).
About 360 (0.19%) of roughly 190,000 compounds were called active. This list was built around the results that the source calls inconclusive (neither active nor inactive); the mix of calls is not that of the screen.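 The calls were made as follows: active = GTP binding activity at least 20 points away from 100%, either lowered or raised; inconclusive = signal likely due to the compound's own green fluorescence; inactive = the rest.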

Molecular target: Ras-related protein Rab-2A (Canis lupus familiaris) (UniProt P61105)
Test: Rab2 wt fluorescent GTP binding changes, either direction – biochemical, dog, bead-based flow cytometry, multiplex, primary screen (AID 760);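 also: 0% = beads with excess unlabeled GTP and 100% = no-compound control corrected for plate trend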
Conditions: GST-Rab2 wt beads, Bodipy-GTP binding, at 10 µM

SMILES | GTP binding activity
CCc1cccc(C)c1NC(=O)CO/N=C(\N)CC(=O)NC1CCCCC1 | inconclusive: 109%
CCOc1ccc(C(=O)NC2CCN(C(=S)NCc3ccco3)CC2)cc1 | inconclusive: 90%
C(=N\Nc1nc2ccccc2s1)/c1ccco1 | inconclusive: 104%
COC(=O)C1=C(C)OC(N)=C(C#N)C1C1CCCCC1 (centres undefined) | inactive: 100%
CC(=O)NC1C(=O)N(CC(C)C)c2ccccc21 (centres undefined) | inconclusive: 103%
Cc1cccn2c(=O)c(C=NCCO)c(Nc3ccc(Cl)cc3)nc12 | inconclusive: 94%
Oc1ccc2ccccc2c1/C=N/Nc1nnc(-c2ncc[nH]2)c2ccccc12 | inconclusive: 66%
CCOC(=O)N1CCN(C(=O)c2ccc(CS(=O)(=O)c3ccccc3OC)o2)CC1 | inconclusive: 94%
C=CCn1c(C)cc(C(=O)Cn2nc(C(=O)O)c3ccccc3c2=O)c1C | inconclusive: 96%
COc1ccccc1NS(=O)(=O)c1ccc2c(c1)n(C)c(=O)n2C | inactive: 99%
COc1ccc(NC(=O)c2sc(Cl)nc2-c2ccccc2)cc1 | inactive: 101%
C#CC1CN(Cc2ccccc2)CC(C#C)N1C (centres undefined) | inconclusive: 107%
Cc1cc(C(=O)OCC(=O)Nc2cc(S(=O)(=O)N(C)C)ccc2Cl)c2ccccc2n1 | inconclusive: 97%
CCN(CC)S(=O)(=O)c1ccc2c(c1)c(=O)c(C(=O)NCc1ccco1)cn2C | inactive: 92%
COc1ccc(NC(=O)Cc2nnc(N)s2)cc1 | inconclusive: 87%
Cc1cc(C)nc(Nc2nc(=O)c3ccccc3s2)n1 | inactive: 117%
CCOC(=O)c1cncc(C(=O)O)c1 | inactive: 103%
COc1ccc([C@@H]2Sc3cc(OC)ccc3N(CCN(C(C)C)C(C)C)C(=O)[C@H]2OC(C)=O)cc1 | inconclusive: 101%
CC(C)CC1=NN(C(=O)c2ccncc2)C(O)(C(F)(F)F)C1 (centres undefined) | inactive: 99%
CC(=O)NC(CC(=O)Nc1ccc(S(=O)(=O)N2CCCC2)cc1)c1ccccc1 (centres undefined) | inconclusive: 106%
CCc1nnc(NC(=O)CSc2nnc3c4ccccc4n(C)c3n2)s1 | inconclusive: 83%
COC(=O)c1cc(NC(=O)c2ccc(F)cc2)cc(C(=O)OC)c1 | inactive: 98%
COc1ccc(CCC(C)NCC2CCCCC2)cc1 (centres undefined) | inconclusive: 103%
CN(c1ccc([N+](=O)[O-])cc1C(N)=O)C1CCCCC1 | inactive: 95%

SMILES | GTP binding activity
O=C(O)c1ccccc1OCc1ccccc1Br | active: 129% [activator]
CCOC(=O)c1c(C)nc2c(c1-c1ccccc1)C(=O)CCC2 | inconclusive: 95%
CCc1ccccc1NC(=O)CSc1nnc(-c2ccncc2)o1 | inactive: 99%
CCOc1nc(-c2ccncc2)nc2ccccc12 | inconclusive: 106%
Cc1nn(CC(O)COc2ccc3c(c2)CCC3)c(C)c1Br (centres undefined) | inconclusive: 105%
CC(C)C(=O)NC(C)C(c1cccs1)N1CCN(C)CC1 (centres undefined) | inconclusive: 98%
CCOc1cc(S(=O)(=O)N2CCN(Cc3ccccc3)CC2)ccc1Br | inconclusive: 91%
CCn1c(NCc2cc(Br)ccc2NS(=O)(=O)c2ccc(C)cc2)nc2ccccc21 | inactive: 98%
C(=N/N1CCN(c2ccccc2)CC1)/c1ccncc1 | inactive: 94%
CN1CCN(S(=O)(=O)c2cccc(C(=O)Nc3sc4c(c3C(N)=O)CCCC4)c2)CC1 | active: 77%
CC1=Nc2ccccc2/C1=C\c1sc(Nc2ccc(C)cc2)nc1O | inconclusive: 90%
CC(C)c1ccc(OCc2ccc(C(=O)NN3CCN(C)CC3)o2)cc1 | inactive: 83%
CSCC[C@H](NC(=O)NCc1ccc(F)cc1)C(=O)O | inconclusive: 108%
CCOc1ccc(C2=Nn3c(nnc3-c3ccco3)SC2)cc1 | active: 76%
COc1ccc(-c2nn(-c3ccccc3)cc2CN2CCCO2)c(F)c1 | inactive: 100%
CN(Cc1ccc(-n2cccn2)cc1)Cc1cn(C)nc1-c1ccccc1F | inconclusive: 93%
CCNCc1cc(OCC)c(OCC(=O)NCCc2ccccc2)cc1Cl | inconclusive: 108%
CN(Cc1ccc2nonc2c1)Cc1nc(CC2CC2)no1 | inactive: 99%
COc1ccc(Cl)cc1NC(=O)C/C(C)=N/NC(=O)Cc1ccccc1 | inconclusive: 95%
CO/N=C(\C(=O)O)c1csc(NN=C(C)C)n1 | inactive: 94%
CC1Cc2ccccc2N1C(=S)NC(=O)C1(C)CC1(Cl)Cl (centres undefined) | inconclusive: 96%
C/C(=N\NC(=O)c1cccc(N/N=C(\C)c2cc(O)ccc2O)c1)c1cc(O)ccc1O | inconclusive: 82%
COC(=O)C(F)(F)Sc1c(C)[nH]c2ccccc12 | inconclusive: 101%
C/C=C/c1cc(CN2CCN(c3ccc(OC)cc3)CC2)c(O)c(OC)c1 | inactive: 95%

SMILES | GTP binding activity
NC(=O)C(=O)N/N=C/c1c[nH]c2ccc(Br)cc12 | inconclusive: 93%
CC(C)n1cc(/C=C2\NC(=O)N(c3cccc(Cl)c3)C2=O)c2ccccc21 | inconclusive: 107%
CC(=O)c1sc(NC(=O)CCCOc2ccc(Cl)cc2)nc1C | inactive: 107%
CCC(C)/C(C)=N/NC(=O)CNS(=O)(=O)c1ccc([N+](=O)[O-])cc1 (centres undefined) | inactive: 101%
NC(=O)c1c(NC(=O)c2cnccn2)sc2c1CCCC2 | inactive: 80%
CCC(=O)Nc1cc(C(=O)OCC(=O)c2ccc(Cl)cc2Cl)ccc1C | inconclusive: 102%
O=C(NCC1CCN(c2ccc(S(=O)(=O)N3CCOCC3)cc2)CC1)c1cccc(Cl)c1 | inconclusive: 102%
CC(=O)N1CCc2cc(Br)cc(S(=O)(=O)N3CCN(C(=O)c4ccco4)CC3)c21 | inconclusive: 107%
C=CCc1ccccc1OCC(O)CN1CCN(C(=O)OCC)CC1 (centres undefined) | inconclusive: 125%
COc1ccc(-n2c(C)cc(/C=C3\SC(=S)N(Cc4ccco4)C3=O)c2C)cc1 | inconclusive: 138%
CCOC(=O)NC(=O)CSc1nnc(C2CC2)n1Cc1ccco1 | inactive: 98%
CC(NC(=O)CSc1nc2ccc(N)cc2s1)c1ccccc1 (centres undefined) | inactive: 96%
COc1ccc2c(c1)CC/C(=C/c1ccncc1)C2=O | inconclusive: 97%
O=C(Nc1nc2ccccc2[nH]1)c1ccc(Cl)c(S(=O)(=O)N2CCCC2)c1 | inconclusive: 93%
Cc1c(N)cccc1-n1cccc1 | inconclusive: 100%
S=c1[nH]nc(-c2ccco2)n1-c1ccccc1Cl | inactive: 85%
CSc1nc(C)cc(SC(C(C)=O)C(=O)Nc2ccccc2)n1 (centres undefined) | inconclusive: 94%
CCS(=O)(=O)Nc1cccc(C(=O)CC2(O)C(=O)Nc3ccccc32)c1 (centres undefined) | inconclusive: 101%
NC(=S)N=Nc1c(O)[nH]c2c(Br)cc(Br)cc12 | active: 74%
Cc1ccc(NC(=O)c2ccccc2F)cc1S(=O)(=O)N1CCCCCC1 | inconclusive: 91%
C=CCNC(=O)C(=O)NCCOc1ccccc1Cl | inactive: 101%
CC(C)Cc1nnc(NC(=O)CCC(=O)N2CCN(S(=O)(=O)c3ccccc3)CC2)s1 | inconclusive: 104%
COC(=O)CN1C(=O)CC(C)(C)S(=O)c2ccccc21 (centres undefined) | inconclusive: 101%
COc1ccc(OC)c(N2CC(O)(c3cccs3)[N+]3=C2SCCC3)c1 (centres undefined) | inactive: 98%

SMILES | GTP binding activity
Cn1c(N)c(C(=O)COC(=O)CCCOc2ccc(Cl)cc2Cl)c(=O)n(C)c1=O | inconclusive: 86%
Cc1cccc(C(=O)Oc2ccc(/C=N/O)cc2)c1 | inconclusive: 101%
CCCCCCCn1c2c(c(=N)c3ccccc31)CCC2 | inactive: 100%
COc1ccc(-c2cc(C(=O)Oc3ccc([N+](=O)[O-])cc3)c3ccccc3n2)cc1 | inconclusive: 89%
CC(C)(C)c1ccc(CNc2cc(N3CCOCC3)ccc2[N+](=O)[O-])cc1 | inconclusive: 91%
CCCCOc1ccc(S(=O)(=O)NNC(=O)c2cc3ccccc3o2)cc1 | inconclusive: 84%
CC(C)[C@H](NC(N)=O)C(=O)Nc1ccc(F)c(Cl)c1 | inconclusive: 91%
CCOC(=O)c1c2ccc(OCC(=O)N/N=C/c3ccc(C)cc3)cc2n2ccccc12 | inconclusive: 88%
O=C(Cc1ccccc1)N1CCN(S(=O)(=O)c2ccc([N+](=O)[O-])cc2)CC1 | inactive: 98%
C=CCn1c(SCc2nnc(-c3ccccc3)o2)nnc1C(O)c1ccccc1 (centres undefined) | inconclusive: 101%
O=C(NCc1ccccc1F)Nc1ccc([N+](=O)[O-])cc1 | inactive: 96%
COc1cc(OC)c(/C=N/NC(N)=S)cc1Br | inconclusive: 95%
O=C1CCCN1c1ccc(S(=O)(=O)Oc2cccc(Cl)c2)cc1[N+](=O)[O-] | inconclusive: 103%
CNC(=O)c1cc(C(=O)c2ccccc2C(F)(F)F)c[nH]1 | inconclusive: 91%
Nc1[nH]n2c(=O)c3c(nc2c1N=Nc1ccc(Cl)cc1)CCCC3 | inactive: 81%
O=S(=O)(c1cccc2cccc(Cl)c12)N1CCCC1 | inconclusive: 94%
COc1ccccc1CN1C[C@@H]2C[C@@H](c3ccc(C)c(C)c3)N3CCC[C@@]23C1=O | inconclusive: 94%
CC1(C)Cc2c(oc3ncn4ncnc4c23)CO1 | inconclusive: 106%
CCN(CC)c1ccc(/C=C(\C#N)c2nc(-c3cccs3)c(NC(C)=O)s2)cc1 | inconclusive: 156%
CC(C)(C)C(=O)OCC1OC(n2cnc(C(N)=O)n2)C(O)C1O (centres undefined) | inactive: 114%
CN(C)/C=N/c1nc2nccc(-c3cccs3)n2n1 | inconclusive: 95%
CSc1nnc(-c2cc(Br)ccc2N=Cc2c(C)[nH]n(-c3ccccc3)c2=O)c(=O)[nH]1 | inactive: 81%
